According to the supplement of paper PMC4967469:
By IC50 is meant the dose at which the fit gives 50% viability; a fit beyond the top or the lowest dose is shown as a bound at that dose. For AUC the same curve is integrated over the 256-fold range of doses and scaled to a fraction; values near 1 show little effect. For part of these data: An inferred top dose comes from the curve model; the source does not state it. For part of these data: An entry number marks a drug with two screens in the source, which often give different values.

Legend:
Test in all cases: Viability of human cancer cell lines after 72 h of drug (GDSC screen)
[1] = compound: CCOc1nc(NC(=O)Cc2cc(OC)ccc2OC)cc(N)c1C#N [JNK Inhibitor VIII]; details: top dose 10 µM; top dose inferred
Procedure: (§1)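 Human cancer cell lines in 384-well plates, medium with 10% serum, drug for 72 h over a 256-fold dose range (nine 2-fold or five 4-fold steps up to the top dose). Adherent lines were fixed and stained with the nucleic acid dye Syto60, suspension lines read with resazurin; signal relative to control wells, capped at 0 and 100%. One two-parameter sigmoid per drug and line, fitted in a mixed model over all curves with the slope shared within a line.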

[2] = compound: Cc1ccc(C(=O)N(CCCN)[C@@H](c2nc3cc(Cl)ccc3c(=O)n2Cc2ccccc2)C(C)C)cc1 [SB-715992]; details: top dose 0.128 µM; top dose inferred
Procedure: as §1

[3] = compound: c1ccc2c(CCNc3ccc(Nc4ccncc4)cc3)c[nH]c2c1 [JNJ-26854165]; details: top dose 10 µM
Procedure: as §1

[4] = compound: CN1CCN(c2ccc([N+](=O)[O-])c3no[n+]([O-])c23)CC1 [NSC-207895]; details: top dose 20 µM; top dose inferred
Procedure: as §1

[5] = compound: COCC[n+]1c2c(n(Cc3cnccn3)c1C)C(=O)c1ccccc1C2=O [YM155]; details: top dose 5.12 µM
Procedure: as §1

[6] = compound: O=C(/C=C/c1cccc(S(=O)(=O)Nc2ccccc2)c1)NO [Belinostat]; details: top dose 20 µM; top dose inferred
Procedure: as §1

[7] = compound: CC1=C2C[C@H]3[C@@H](CC=C4C[C@@H](O)CC[C@@]43C)[C@@H]2CC[C@]12O[C@@H]1C[C@H](C)CN[C@H]1[C@H]2C [Cyclopamine]; details: top dose 16 µM; top dose inferred
Procedure: as §1

[8] = compound: COC(=O)[C@H](CCSC)NC(=O)c1ccc(NC[C@@H](N)CS)cc1-c1ccccc1 [FTI-277]; details: top dose 1.024 µM; top dose inferred
Procedure: as §1

[9] = compound: CC(=O)O[C@@]12CO[C@@H]1C[C@H](O)[C@@]1(C)C(=O)[C@H](O)C3=C(C)[C@@H](OC(=O)[C@H](O)[C@@H](NC(=O)OC(C)(C)C)c4ccccc4)C[C@@](O)([C@@H](OC(=O)c4ccccc4)[C@H]21)C3(C)C [Docetaxel]; details: top dose 0.0125 µM
Procedure: as §1

[10] = compound: Cc1sc2c(c1C)C(c1ccc(Cl)cc1)=N[C@@H](CC(=O)OC(C)(C)C)c1nnc(C)n1-2 [JQ1]
Procedure: as §1

[11] = compound: CC1(C)CNc2cc(NC(=O)c3cccnc3NCc3ccncc3)ccc21 [AMG-706]; details: top dose 2 µM; top dose inferred
Procedure: as §1

[12] = compound: OCCCNc1cc(-c2ccnc(Nc3cccc(Cl)c3)n2)ccn1 [CGP-60474]; details: top dose 0.256 µM; top dose inferred
Procedure: as §1

[13] = compound: C[C@]1(O)C[C@@H](c2nc(-c3ccc4ccc(-c5ccccc5)nc4c3)c3c(N)nccn32)C1 [OSI-906]; details: top dose 2.56 µM; top dose inferred
Procedure: as §1

[14] = compound: COc1cc(N2CCC(N3CCN(C)CC3)CC2)ccc1Nc1ncc(Cl)c(Nc2ccccc2S(=O)(=O)C(C)C)n1 [NVP-TAE684]; details: top dose 2 µM
Procedure: as §1

[15] = top dose 1 µM, screen: GDSC drug entry 1218, top dose inferred
[16] = top dose 2.56 µM, screen: GDSC drug entry 163

ES1 (Ewing sarcoma, adherent)
AUC [1]: 0.955 | IC50 [1]: > 10000 nM | AUC [2]: 0.734 | IC50 [2]: 36.8 nM | AUC [3]: 0.748 | IC50 [3]: 3170 nM | AUC [4]: 0.919 | IC50 [4]: > 20000 nM | AUC [5]: 0.031 | IC50 [5]: < 20 nM | AUC [6]: 0.283 | IC50 [6]: 307 nM | AUC [7]: 0.958 | IC50 [7]: > 16000 nM | AUC [8]: 0.986 | IC50 [8]: > 1020 nM | AUC [9]: 0.675 | IC50 [9]: 2.38 nM | AUC [10, 15]: 0.984 | IC50 [10, 15]: > 1000 nM | AUC [10, 16]: 0.946 | IC50 [10, 16]: > 2560 nM | AUC [11]: 0.961 | IC50 [11]: > 2000 nM | AUC [12]: 0.851 | IC50 [12]: 191 nM | AUC [13]: 0.459 | IC50 [13]: 124 nM | AUC [14]: 0.85 | IC50 [14]: 1490 nM

ES6 (Ewing sarcoma, adherent)
AUC [1]: 0.967 | IC50 [1]: > 10000 nM | AUC [2]: 0.966 | IC50 [2]: > 128 nM | AUC [3]: 0.907 | IC50 [3]: > 10000 nM | AUC [4]: 0.902 | IC50 [4]: > 20000 nM | AUC [5]: 0.128 | IC50 [5]: < 20 nM | AUC [6]: 0.516 | IC50 [6]: 1390 nM | AUC [7]: 0.926 | IC50 [7]: > 16000 nM | AUC [8]: 0.942 | IC50 [8]: > 1020 nM | AUC [9]: 0.836 | IC50 [9]: 11.2 nM | AUC [10, 15]: 0.967 | IC50 [10, 15]: > 1000 nM | AUC [10, 16]: 0.839 | IC50 [10, 16]: 2380 nM | AUC [11]: 0.933 | IC50 [11]: > 2000 nM | AUC [12]: 0.376 | IC50 [12]: 6.69 nM | AUC [13]: 0.704 | IC50 [13]: 696 nM | AUC [14]: 0.717 | IC50 [14]: 603 nM

EoL-1-cell (haematopoietic neoplasm, suspension)
AUC [1]: 0.986 | IC50 [1]: > 10000 nM | AUC [2]: 0.784 | IC50 [2]: 47.7 nM | AUC [3]: 0.605 | IC50 [3]: 1170 nM | AUC [4]: 0.777 | IC50 [4]: 7070 nM | AUC [5]: 0.024 | IC50 [5]: < 20 nM | AUC [6]: 0.21 | IC50 [6]: 200 nM | AUC [7]: 0.898 | IC50 [7]: > 16000 nM | AUC [8]: 0.981 | IC50 [8]: > 1020 nM | AUC [9]: 0.798 | IC50 [9]: 5.16 nM | AUC [10, 15]: 0.979 | IC50 [10, 15]: > 1000 nM | AUC [10, 16]: 0.662 | IC50 [10, 16]: 424 nM | AUC [11]: 0.029 | IC50 [11]: < 7.81 nM | AUC [12]: 0.855 | IC50 [12]: 167 nM | AUC [13]: 0.933 | IC50 [13]: > 2560 nM | AUC [14]: 0.969 | IC50 [14]: > 2000 nM

Farage (B-cell lymphoma, suspension)
AUC [1]: 0.993 | IC50 [1]: > 10000 nM | AUC [2]: 0.624 | IC50 [2]: 16.4 nM | AUC [3]: 0.914 | IC50 [3]: > 10000 nM | AUC [4]: 0.902 | IC50 [4]: 17700 nM | AUC [5]: 0.016 | IC50 [5]: < 20 nM | AUC [6]: 0.275 | IC50 [6]: 332 nM | AUC [7]: 0.966 | IC50 [7]: > 16000 nM | AUC [8]: 0.988 | IC50 [8]: > 1020 nM | AUC [9]: 0.897 | IC50 [9]: 10.6 nM | AUC [10, 15]: 0.974 | IC50 [10, 15]: > 1000 nM | AUC [10, 16]: 0.809 | IC50 [10, 16]: 1050 nM | AUC [11]: 0.993 | IC50 [11]: > 2000 nM | AUC [12]: 0.606 | IC50 [12]: 29.6 nM | AUC [13]: 0.993 | IC50 [13]: > 2560 nM | AUC [14]: 0.96 | IC50 [14]: > 2000 nM
